# Results taken from paper PMC4336329 (PLoS ONE, 2015).
# Screen size: about 310,000 compounds; about 2,200 (0.71%) showed an effect of 50% or more. The effect is printed as a negative number. The list shows a part of the results.
# Molecular target: human ether-à-go-go-related gene (hERG) potassium channel (human, UniProt Q12809)
# Assay: primary screen, population patch clamp on CHO cells stably expressing hERG
# human ether-à-go-go-related gene (hERG) potassium channel, sequence (Q12809 whole entry, looked up): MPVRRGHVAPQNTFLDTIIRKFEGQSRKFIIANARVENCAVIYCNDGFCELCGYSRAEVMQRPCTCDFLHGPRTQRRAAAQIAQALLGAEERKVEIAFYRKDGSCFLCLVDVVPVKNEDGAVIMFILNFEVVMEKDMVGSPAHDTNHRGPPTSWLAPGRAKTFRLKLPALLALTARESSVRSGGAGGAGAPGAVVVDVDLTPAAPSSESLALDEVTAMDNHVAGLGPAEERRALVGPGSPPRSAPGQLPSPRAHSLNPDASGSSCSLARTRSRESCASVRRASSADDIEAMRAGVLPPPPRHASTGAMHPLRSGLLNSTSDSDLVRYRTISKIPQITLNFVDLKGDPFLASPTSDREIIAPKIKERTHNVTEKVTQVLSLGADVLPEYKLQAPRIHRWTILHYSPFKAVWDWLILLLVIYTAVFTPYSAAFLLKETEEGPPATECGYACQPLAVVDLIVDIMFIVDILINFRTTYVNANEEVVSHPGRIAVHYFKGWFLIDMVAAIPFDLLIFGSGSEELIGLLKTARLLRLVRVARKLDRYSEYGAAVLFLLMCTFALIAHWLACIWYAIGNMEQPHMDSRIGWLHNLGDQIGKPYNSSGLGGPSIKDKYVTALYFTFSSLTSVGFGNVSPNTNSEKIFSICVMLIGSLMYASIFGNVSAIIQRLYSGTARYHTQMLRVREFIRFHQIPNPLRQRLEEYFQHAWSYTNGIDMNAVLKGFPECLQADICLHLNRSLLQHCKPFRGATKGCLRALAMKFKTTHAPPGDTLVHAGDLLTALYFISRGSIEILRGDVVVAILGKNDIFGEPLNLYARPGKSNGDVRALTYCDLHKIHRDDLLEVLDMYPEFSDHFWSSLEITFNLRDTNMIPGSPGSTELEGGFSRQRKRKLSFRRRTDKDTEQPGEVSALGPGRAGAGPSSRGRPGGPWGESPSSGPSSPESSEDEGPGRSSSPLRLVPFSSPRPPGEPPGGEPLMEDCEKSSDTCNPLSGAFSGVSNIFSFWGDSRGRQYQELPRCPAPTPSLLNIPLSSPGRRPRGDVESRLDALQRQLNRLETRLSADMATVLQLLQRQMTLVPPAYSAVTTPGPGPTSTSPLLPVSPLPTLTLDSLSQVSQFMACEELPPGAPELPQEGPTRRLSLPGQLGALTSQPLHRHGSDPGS
row,SMILES,"hERG current change (%, negative = inhibition) at 1uM"
1,Cc1cc(Cl)c(S(=O)(=O)Nc2ccc(S(=O)(=O)N3CCOCC3)cc2)cc1OCC(N)=O,14.7%
2,O=C(Oc1c(Cl)cc(Cl)c2cccnc12)c1cccs1,8.02%
3,COc1ccc([N+](=O)[O-])cc1CSc1ccccn1,4.48%
4,CCOC(=O)CSc1ncc(-c2ccccc2)cn1,-1.79%
5,Cc1c(C(=O)N(C)Cc2ccccc2)oc2c(Cl)cccc12,4.36%
6,CCOC(=O)C1(S(=O)(=O)c2ccccc2)CCN(Cc2ccc(Cl)cc2)CC1,17.3%
7,CCc1ccc(NP(=O)(Oc2ccccc2F)Oc2ccccc2F)cc1,12.1%
8,CC(C)NC(=S)Nc1ccc(S(=O)(=O)Nc2ncccn2)cc1,13.8%
9,Cc1nc2ccc(NC(=O)CS(=O)(=O)c3ccc(F)cc3)cc2s1,14.6%
10,CC(C)CC(=O)c1c[nH]c(C(=O)NCCCn2ccnc2)c1,13.1%
11,Cc1[nH]c(C)c(S(=O)(=O)Nc2ccc(F)cc2Cl)c1C(=O)N1CCCC1,10.5%
12,NC(=O)c1nc(C2CCCCC2)nc2c1[nH]c(=O)n2-c1ccc(F)cc1,5.73%
13,COc1ccc(C(=O)Nc2cc(-c3ccc(C)cc3)no2)cc1,15.2%
14,O=C(CSc1nc(-c2ccccc2)cs1)Nc1nccs1,9.24%
15,O=C(Nc1ccc2cn[nH]c2c1)c1c(Cl)cccc1Cl,5.34%
16,CCN(C(=O)COC(=O)/C=C/c1cnc2ccccc2n1)C1CCS(=O)(=O)C1 (stereo not shown),0.316%
17,Cc1c2c(n3c(nc4ccccc43)c1C#N)N(CCN(C)C)CC2,0.184%
18,CCN1CCC(NCCc2ccc(F)cc2)CC1,13.6%
19,O=C(O)c1ccc(/C=N\Nc2ccccn2)cc1,12.3%
20,S=C(Nc1cccc(Cl)c1)Nc1ccc2cn[nH]c2c1,14%
21,Cc1ccc(-n2nc3c(c2NC(=O)C(C)(C)C)CS(=O)(=O)C3)cc1,11%
22,COc1cc(OC)cc(C(=O)NC2CC(C)(C)NC(C)(C)C2)c1.Cl,17%

row,SMILES,"hERG current change (%, negative = inhibition) at 1uM"
1,Cc1ccc(N2CC(C)Cn3c2nc2c3c(=O)[nH]c(=O)n2C)cc1C (stereo not shown),0.855%
2,Cc1nn(Cc2ccccc2)c(Cl)c1C(=O)NCCc1ccc(Cl)cc1,3.27%
3,Cn1cc(S(=O)(=O)Nc2ccc(F)cc2F)c(=O)n(C)c1=O,12.9%
4,CC(=O)Nc1ccc(NC(=O)COc2ccc(Cl)cc2Cl)cc1,11.5%
5,O=C(c1ccc(F)cc1)N1C2CCC1CC(O)(c1ccc(F)cc1)C2 (stereo not shown),-1.39%
6,Nc1nc(N2CCN(C(c3ccccc3)c3ccccc3)CC2)n[nH]1,11.6%
7,Cc1ccc(C(=O)NCC(=O)O)o1,3.85%
8,COC(=O)c1ccc(NC(=O)c2ccc(NS(=O)(=O)c3cccc4cccnc34)cc2)cc1,12.6%
9,CN1CCN(c2ccc([N+](=O)[O-])cc2NC(=O)c2ccco2)CC1,-22.4%
10,Cc1ccc(-n2nc3c(=O)n(CC(=O)NCCCc4ccccc4)nc(C)c3c2C)cc1,20.2%
11,Cc1ccc(-c2noc(-c3cc4ccccc4oc3=O)n2)cc1,3.43%
12,COc1ccc2cc3cc(C(=O)NCc4cccs4)oc3nc2c1,5.18%
13,O=C(N/N=C/c1cccnc1)c1cccc(N2CCCC2=O)c1,12.4%
14,CCCOc1cccc(C2C(C(=O)c3cc4ccccc4o3)=C(O)C(=O)N2c2cc(C)on2)c1 (stereo not shown),15.5%
15,COc1ccc2[nH]cc(CCNC(=O)CCC3CCCCC3)c2c1,1.77%
16,COc1ccc(C(=O)CSc2nnc(NC(=O)C3CC(=O)N(c4ccccc4)C3)s2)cc1 (stereo not shown),-2.23%
17,COc1ccc(Cc2noc(-c3ccccc3)n2)cc1OC,-14.4%
18,CN(CCC#N)C(=S)Nc1ccc(F)cc1,11.9%
19,CCC(C)[C@H](NC(=O)NCc1ccc(S(N)(=O)=O)cc1)C(=O)O (stereo partly shown),9.74%
20,COc1ccc(N2C(=O)CC(NNC(=O)c3cccnc3)C2=O)cc1 (stereo not shown),13.9%
21,CCn1c2ccccc2c2cc(NC(=O)COC(=O)c3ccccc3F)ccc21,2.76%
22,COc1ccc(/C=N/n2cnn(Cc3ccccc3Cl)c2=S)cc1OC,9.09%

row,SMILES,"hERG current change (%, negative = inhibition) at 1uM"
1,Nc1nonc1C(=O)N/N=C/c1ccc(-c2cccc([N+](=O)[O-])c2)o1,2.53%
2,CCCCCC(=O)Nc1cc2[nH]c(=O)cc(COC)c2cc1C,2.39%
3,COc1ccc(/C=C/c2nnc(NC(=O)CC(C)C)s2)cc1,13.1%
4,Cc1cc(C)c(C#N)c(Nc2ccc(F)cc2)n1,5.61%
5,CCOCCCn1c(=S)[nH]c2cc(C(=O)NCCc3ccc(OC)c(OC)c3)ccc2c1=O,18.6%
6,CCOC(=O)CC1=C(C#N)C(c2cccnc2)C(C(=O)OCC)=C(N)O1 (stereo not shown),12.8%
7,COCCN1C=C2C(=O)C(C)(OC(=O)c3cccs3)C(=O)C=C2C=C1CCCC(=O)OC (stereo not shown),11.9%
8,O=C(COC(=O)c1ncc(Cl)c(Cl)c1Cl)NC(=O)NCc1ccccc1,-9.22%
9,Cc1ccnc2nc(C(=O)OCCOc3ccccc3)nn12,5.02%
10,NC(=O)Nn1c(CCC(=O)O)ccc1-c1ccc(Br)cc1,9.49%
11,CC(=O)OCCCn1c(C)[n+](C)c2cc(Cl)c(Cl)cc21.[I-],10.8%
12,O=Cc1ccc(OC(=O)/C=C/c2ccccc2)cc1,12%
13,CCc1cccc(C)c1NC(=O)CSc1nnc(CCCOc2ccc(Cl)cc2Cl)n1C,6.23%
14,CCOC(=O)c1nnc2c(Br)c(-c3ccccc3)nn2c1C,5.79%
15,FC(F)(F)c1cnc(N2CCCN(C(=S)Nc3ccccc3)CC2)c(Cl)c1,16.5%
16,CCOC(=O)CSc1n[nH]c(NS(=O)(=O)c2ccccc2C(F)(F)F)n1,4.75%
17,CN(C(=O)COC(=O)c1ccccc1Cc1ccccc1)C1CCS(=O)(=O)C1 (stereo not shown),-3.46%
18,CCOCCCNC(=O)CN1C(=O)c2cccc3cccc1c23,19.1%
19,Cc1nc(NC(=O)CSc2cc(C)c3ccccc3n2)c(Cl)cc1Cl,6.57%
20,CCOc1ccc(N=C/C=C/c2ccccc2)c(O)c1,8.26%
21,COc1ccccc1CNC(=O)COc1ccc(C)nc1[N+](=O)[O-],15.5%
22,CCCn1c(SCC(=O)NC(C)(C)C)nnc1-c1ccco1,14.2%

row,SMILES,"hERG current change (%, negative = inhibition) at 1uM"
1,CN1CCN(CC(=O)N2c3ccccc3C(=O)Nc3cccnc32)CC1.Cl,10.2%
2,Cc1ccc(C)c(OCCC(=O)OCC(=O)Nc2ccc(C)c(S(=O)(=O)N3CCCCC3)c2)c1,4.1%
3,COc1ccc(S(=O)(=O)CCc2nnc(NC(=O)c3ccc(F)cc3)s2)cc1,8.55%
4,CCc1ccccc1NC(=O)CCS(=O)(=O)c1ccc2c(c1)CCCN2C(C)=O,11.2%
5,COc1ccc(C(=O)NC(=S)N(C)Cc2ccccc2)cc1Br,15%
6,O=C(c1ccccc1)N1CCN(C(=O)c2nn3c(C(F)(F)F)cc(-c4ccco4)nc3c2Br)CC1,1.06%
7,CCN(CC)CCCNC(=O)c1ccc(N2CCCCC2)c(NS(=O)(=O)c2ccc(C)cc2)c1,-7.19%
8,COc1ccc(C(C)=O)cc1COC(=O)c1cc(C)oc1C,9.94%
9,CC(=O)Nc1cccc(C(=O)/C=C/c2ccc[nH]2)c1,10.8%
10,Cc1cc(C(=O)CSc2nnnn2C)c(C)n1CCc1ccc(F)cc1,11.1%
11,O=C(Nc1ccc(S(=O)(=O)N2CCCC2)cc1)c1cccc(OC(F)F)c1,19.7%
12,Cc1ccc(C2=NS(=O)(=O)N(C)C(C(=O)Nc3ccc(F)cc3F)=C2)cc1,-1.18%
13,Cc1cc(C(=O)OCC(=O)Nc2ccc(S(=O)(=O)N3CCOCC3)cc2)c(C)o1,11%
14,COC(=O)[C@@H]1CC[C@H](C)[C@@H](c2ccc(C)cc2)N1C(=O)c1ccc(/C=N/O[C@@H](C)CN2CCCCc3nc(C)c(C)cc32)cc1,7.81%
15,CCOC(=O)NC(N(O)c1cccc(Cl)c1)C(Cl)(Cl)Cl (stereo not shown),2.15%
16,COc1ccc(NC2=CC(c3ccc(OC)c(OC)c3)N(c3ccc(OC)cc3)C2=O)cc1 (stereo not shown),6.8%
17,Cn1cc(Br)c(C(=O)Nc2nccs2)n1,5.26%
18,CCc1ccc(OCc2nc(-c3ccccn3)no2)c(Br)c1,10.5%
19,CC(C)c1ccc(/C=C/C(=O)n2nnc3ccccc32)cc1,15.1%
20,C=CCOC(=O)C1C(=O)CC(C)(O)C(C(=O)OCC=C)C1c1ccc(OC)cc1 (stereo not shown),8.88%
21,Cc1cccc(C)c1N1C(=O)C(Cl)=C(N2CCCC2)C1=O,12%
22,CCCN1CNc2c(c(=O)[nH]c(=S)n2CCc2ccc(OC)c(OC)c2)C1,13.4%
